Laboratory results as given in PubChem BioAssay AID624417 (National Center for Advancing Translational Sciences (NCATS), 2012).
Out of some 410,000 compounds screened, about 6,400 (1.6%) were called active. The inconclusive results got no clear call from the source; some entries with a clear call stand among them for comparison. Calls follow the shape of the dose curve; as a rule, active = well fitted inhibition curve with a large enough effect; inconclusive = small, poorly fitted or top-dose-only effect; inactive = no such curve, though single readings can be large or run the other way. Where the call is inconclusive, the potency comes from a doubtful curve fit.

Biological target: Glucagon-like peptide 1 receptor (Homo sapiens) (UniProt P43220)
Sequence of UniProt P43220 (P43220 whole entry, looked up): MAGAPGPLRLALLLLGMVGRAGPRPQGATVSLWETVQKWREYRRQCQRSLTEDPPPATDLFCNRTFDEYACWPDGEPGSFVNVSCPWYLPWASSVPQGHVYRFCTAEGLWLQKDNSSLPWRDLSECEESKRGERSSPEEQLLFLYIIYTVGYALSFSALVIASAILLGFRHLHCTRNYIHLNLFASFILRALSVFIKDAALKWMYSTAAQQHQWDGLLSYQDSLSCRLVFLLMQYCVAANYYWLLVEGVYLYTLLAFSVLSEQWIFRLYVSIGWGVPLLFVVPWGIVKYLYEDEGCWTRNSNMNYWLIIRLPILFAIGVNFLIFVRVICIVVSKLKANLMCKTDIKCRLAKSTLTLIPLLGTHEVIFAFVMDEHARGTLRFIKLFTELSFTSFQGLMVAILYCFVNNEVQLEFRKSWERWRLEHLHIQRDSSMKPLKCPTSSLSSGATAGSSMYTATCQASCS
Test: qHTS of GLP-1 Receptor Inverse Agonists (Inhibition Mode); also: nearly all actives have a fitted effect of over 55% in size
Details: HEK293 GLP-1R CRE-luciferase, luminescence, 24 h, GLP-1R form is constitutively active; series mostly up to 38.3 µM
Outline: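 Assay principle: reduced luminescence from a cAMP-responsive reporter in HEK293 cells co-expressing a constitutively active GLP-1R. Conditions: 24 hr compound incubation, 37 deg C, 5% CO2.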
Potency is read from the fitted curve at half-maximal effect; tags tell the direction and shape of the fitted curve.

Potency, active:
CCCCC1CCC(C(=O)Nc2ccccc2N2CCOCC2)CC1 (stereo unspecified) 10 µM
CCOc1ccc(Nc2nc(NCC3CCCO3)c3ccccc3n2)cc1 (stereo unspecified) 3.55 µM
CCN(CC)CCNC(=O)c1c(O)c2cccc3c2n(c1=O)CCC3 4.47 µM
CCc1ccc(-c2nc(CN3CCCC(C(=O)N4CCN(c5cc(Cl)ccc5C)CC4)C3)c(C)o2)cc1 (stereo unspecified) 4.47 µM
COc1ccc(CN2CCN(CCc3ccccc3)C(CCO)C2)c(O)c1 (stereo unspecified) 11.2 µM
CC(CNC(=O)Cn1ccc2cc(S(=O)(=O)N3CCCCCC3)ccc21)c1ccccc1 (stereo unspecified) 11.2 µM
O=C(CCCc1ccccc1)Nc1cccc(C(=O)O)c1 2 µM

Potency, inconclusive:
O=C(CSc1ccccc1)N/N=C/c1ccccc1O 1 µM [inhibitor, full curve]
CS(=O)(=O)N(CCc1ccccc1)CC(=O)NCc1ccccc1Cl 1.58 µM [inhibitor, partial curve, poor fit]
COc1ccc(NC(=O)/C(C#N)=C\C=C\c2ccco2)cc1 7.94 µM [inhibitor, partial curve, poor fit]
Cc1c(/C(Cc2ccccc2)=N/O)c2ccccc2n1C 28.2 µM [inhibitor, single point]
Cc1cc(Cn2nnc3ccccc32)c(O)c(C(C)(C)C)c1 28.2 µM [inhibitor, single point]
CCOc1cc(N2CCOCC2)c(OCC)cc1NC(=O)CCC1CCCC1 1 µM [inhibitor, full curve, poor fit]
CCOc1cc(N2CCOCC2)c(OCC)cc1NC(=O)c1cc(-c2ccco2)nc2ccccc12 10 µM [inhibitor, single point]
CCC1=Nc2cc(C(=O)NCc3ccco3)ccc2Sc2ccccc21 1.26 µM [inhibitor, full curve]
O=C(Nc1ccc2nc(SCCOc3ccccc3Cl)sc2c1)c1cccs1 10 µM [inhibitor, partial curve, poor fit]
CCn1c2ccccc2c2cc(/C=C(/C#N)C(N)=S)ccc21 1 µM [inhibitor, full curve, poor fit]
O=C1CC(c2ccc(Cl)cc2)Oc2ccc(Cl)cc21 (stereo unspecified) 5.01 µM [inhibitor, partial curve]
O=C(NNc1ccccc1)c1ccccc1 1.12 µM [inhibitor, full curve, poor fit]
Cc1ccc(-c2cc(C(=O)O)c3cc(Br)ccc3n2)s1 28.2 µM [inhibitor, single point]
CCOc1cc(/C=N/NC(=O)C(O)(c2ccccc2)c2ccccc2)ccc1OC(=O)c1ccco1 28.2 µM [inhibitor, single point]
COc1ccc(-c2ccc(CCC(=O)O)n2-c2cc(OC)ccc2OC)cc1 10 µM [inhibitor, partial curve]
Cc1ccc(N2CC(C(=O)N/N=C/c3sccc3C)CC2=O)cc1 (stereo unspecified) 20 µM [inhibitor, partial curve, poor fit]
Cc1cccc(N2CCN(C(C(=O)NCc3ccccc3)c3ccco3)CC2)c1C (stereo unspecified) 11.2 µM [inhibitor, single point]
CCOC(=O)Nc1nc2ccc(Cn3cccc3)cc2[nH]1 1 µM [inhibitor, full curve, poor fit]
O=C(Nc1ccc(Cl)c(C(F)(F)F)c1)[C@@H]1CC=C[C@@H]2CCN(Cc3ccc(Cl)c(Cl)c3)C(=O)[C@@H]21 10 µM [inhibitor, partial curve, poor fit]
CC(C)c1ccc(S(=O)(=O)c2cnc(SCC(=O)Nc3cccc(C(F)(F)F)c3)nc2N)cc1 28.2 µM [inhibitor, single point]
COc1ccc(CCN2CCCC(CN(C)Cc3cc(OC)c(OC)c(OC)c3)C2)cc1 (stereo unspecified) 8.91 µM [inhibitor, partial curve]
Cc1cccc(CN2CCCC(C(=O)Nc3ccccc3Oc3cccnc3)C2)c1 (stereo unspecified) 11.2 µM [inhibitor, partial curve, poor fit]
CN(CC(=O)Nc1ccccc1Cl)C(=O)c1cccc(S(=O)(=O)N2CCN(c3ccccc3)CC2)c1 17.8 µM [inhibitor, single point]
CCCCCCOc1ccc(/C=C/C(=O)N2CCOCC2)cc1OC 12.6 µM [inhibitor, single point]
COc1ccc(-c2ccc(C(=O)N3CCN(C)CC3)c3occc23)c(C)c1 10 µM [inhibitor, partial curve]
O=C(C1CCN(c2nnc(-n3cccc3)s2)CC1)N1CCc2ccccc2C1 8.91 µM [inhibitor, partial curve, poor fit]
Cc1ccc(NC(=O)COc2ccc(N(C)S(=O)(=O)c3ccc(F)cc3)cc2)cc1 11.2 µM [inhibitor, partial curve, poor fit]
COc1cc(/C=C/C(=O)OCC(=O)Nc2ccccc2Sc2ccc(Cl)cc2)ccc1O 8.91 µM [inhibitor, partial curve, poor fit]
CC1(C(=O)NCc2ccccc2Br)CCN1C(=O)CCc1ccc(Cl)cc1Cl (stereo unspecified) 11.2 µM [inhibitor, partial curve, poor fit]
N/C(=N\OC(=O)CSc1ccccc1)c1cccc([N+](=O)[O-])c1 28.2 µM [inhibitor, single point]
O=[N+]([O-])c1cccc(CNc2ccc3c(c2)CCC3)c1 28.2 µM [inhibitor, single point]
Cc1ccc(NS(=O)(=O)c2cc(N)ccc2Cl)c(C)c1 11.2 µM [inhibitor, partial curve, poor fit]
CC(=O)Nc1cc(C(=O)NCc2ccc(C)cc2)ccc1Sc1ccc(C)cc1 28.2 µM [inhibitor, single point]
O=C1c2ccccc2C(Nc2ccc(Cl)cn2)N1c1ccccn1 (stereo unspecified) 14.1 µM [inhibitor, partial curve, poor fit]
COc1ccc(CCNC(=O)[C@H](C)N2C(=O)N3CCc4c([nH]c5ccccc45)[C@@]3(C)C2=O)cc1 22.4 µM [inhibitor, single point]
O=C(N/N=C(\c1ccccc1)c1cccnc1)c1cccc(F)c1 22.4 µM [inhibitor, single point]
Cc1ccc(Cl)cc1N1CCN(C(=S)NCc2ccco2)CC1 11.2 µM [inhibitor, partial curve, poor fit]
CCOc1ccccc1C(=O)N1CC(=O)Nc2ccc(Cl)cc2C1c1ccccc1 (stereo unspecified) 11.2 µM [inhibitor, single point]
COc1cc(/C=N/O)cc(Br)c1OS(=O)(=O)c1ccc(C)cc1 12.6 µM [inhibitor, single point]
CC(C)=C1C(=O)NN(c2ccc(C)c(Cl)c2)C1=O 22.4 µM [inhibitor, partial curve, poor fit]
Cc1cccc2nc(CSc3nnnn3-c3ccccc3)cn12 1.78 µM [inhibitor, full curve]
Clc1ccc(CN2CCC(Cc3ccccc3)CC2)cc1 28.2 µM [inhibitor, single point]
CCc1ccc(NC(=S)N2CCN(c3cccc(OC)c3)CC2)cc1 8.91 µM [inhibitor, single point]
Cc1ccc(OCC(O)CNS(=O)(=O)c2ccccc2C(=O)N2CCCCC2)cc1 (stereo unspecified) 5.01 µM [inhibitor, full curve, poor fit]
Cc1ccc2c(c1)[C@H]1[C@H](CO2)[C@H](c2ccccc2)[C@]2(C)C(=O)Nc3ccc(F)cc3C(=O)N12 22.4 µM [inhibitor, single point]

Potency, inactive:
CCc1cc(C(=O)N2CCOCC2)c(NC2=NS(=O)(=O)c3ccccc32)s1
COc1ccc(/C=C/C(=O)c2ccc(C)c([N+](=O)[O-])c2)cc1O
Cc1ccc(CNC(=O)c2nnc(Cc3cccc(F)c3)o2)cc1
CCN(CC)CCNC(=O)c1ccccc1N
COc1ccccc1-c1nnc(SCCOc2ccccc2C)o1
COc1ccc(/C=C\C(=O)Oc2cccc(/C=N/NC(=O)Cc3ccc(OC)c(OC)c3)c2)cc1
Cc1cccc(-n2c(=O)c3c(c4cc(C)ccc4n3C)n(CC(=O)NCCC3=CCCCC3)c2=O)c1
CCOC(=O)CSc1nc2ccccc2c(=O)n1CCc1ccc(OC)c(OC)c1
COc1ccc(Cl)cc1NC(=O)CN(C)S(=O)(=O)c1ccc2c(c1)CCCN2C(C)=O
O=C(CC(c1cccs1)N1Cc2ccccc2C1=O)Nc1ccc(F)c(Cl)c1 (stereo unspecified)
CC(=O)N1CCN(c2ccc(NC(=O)c3cc4ccccc4o3)cc2)CC1
O=C(Cn1c(=O)c2cc(Cl)ccc2n2nncc12)Nc1ccccc1
Cc1ccc(NC(=O)C2CCCN2S(=O)(=O)c2ccc3c(c2)CCCC(=O)N3)cc1C (stereo unspecified)
CCC(OC(=O)c1nsc(Cl)c1Cl)C(=O)NCc1ccco1 (stereo unspecified)
